This is an account of results in ChEMBL document CHEMBL4888484, “Replenishing the malaria drug discovery pipeline: Screening and hit evaluation of the MMV Hit Generation Library 1 (HGL1) against asexual blood stage Plasmodium falciparum ,using a nano luciferase reporter read-out” (2022).

About 540 (0.36%) of roughly 150,000 compounds showed an effect of 50% or more. The list shows a part of the results.

In this experiment the test system is Plasmodium falciparum. As to the kind of experiment: Primary screen in NF54 nanoGlo assay, in single point, at 2uM, 72h; a lower Z score goes with more inhibition. It is filed as functional, Erythrocyte. The following applies: timepoint 72 hour.
Regarding `CC[C@H](C)NCCOc1ccc(F)cc1`, the % Inhibition (as a rule, the drop in the measured response relative to a control, in per cent) is recorded as -14% and the Z score is listed as 1.92.

In the case of `Cc1noc(CNC(=O)c2ccc3[nH]c(=O)[nH]c3c2)n1`, the “% Inhibition” value was -7% and the Z score was 1.3.

In the case of `COc1ccc(Cl)cc1N1C(=O)C[C@H](N2CCN(Cc3ccc(Cl)s3)CC2)C1=O`, the “% Inhibition” value is reported as -12% and the Z score was 1.

For `CCc1nc(C)c(N2C(=O)CN(CC)C2=O)s1`, the “% Inhibition” value was 11% and the Z score is -1.13.

`O=C(Nc1ccccc1F)C(=Cc1cc(-c2cccnc2)[nH]n1)C(=O)Nc1ccccc1F`: the “% Inhibition” value is reported as -8% and the Z score came to 0.97.

With `O=C(Cc1cccc2ccccc12)N1CCO[C@]2(CNCCOC2)C1`, the “% Inhibition” value was found to be 1% and the Z score is reported as -0.19.

`O=C(Nc1cnc(-n2cccn2)nc1)C(c1ccccc1)c1ccccc1`: the “% Inhibition” value turned out to be 0% and the Z score stood at 0.01.

Consider `CC1CC1c1ccc(CN(C)Cc2nnsc2Cl)o1` (stereo not drawn), for which the “% Inhibition” value is -6% and the Z score is recorded as 0.84.

Consider `C[C@@H](C(=O)NC(C)(C)c1noc(C(N)=O)n1)c1ccccc1`, for which the “% Inhibition” value is 2% and the Z score is reported as -0.23.

`Cn1nccc1CCC(=O)NS(=O)(=O)CCC1CCC1`: the “% Inhibition” value was -8% and the Z score was found to be 1.18.

Take `Cc1ccsc1C(=O)N1C[C@H]2CC[C@@H](C1)N(CC1CC1)C2`: the “% Inhibition” value is listed as -12% and the Z score was determined as 1.56.

As to `COC1CCC(C(=O)N2c3ccccc3N(Cc3ccccc3)C(=O)CC2C)C1` (stereo not drawn), the “% Inhibition” value was -2% and the Z score stood at 0.29.

On to `CCc1noc(C(=O)N2CCN[C@@H](Cc3ccccc3)C2)n1`, for which the “% Inhibition” value was 5% and the Z score is listed as -0.91.

As for `O=C(Cc1ccc(N2CCC(NCCc3ccco3)CC2)cc1)NCc1ccccc1`, the “% Inhibition” value is given as -11% and the Z score is given as 1.66.

Take `O=C(Cn1cnc2c1CCCC2)N1CCC[C@H](O)CC1`: the “% Inhibition” value is reported as 5% and the Z score is listed as -0.69.

In the case of `CCc1[nH]nc(-c2cccc(F)c2)c1NC(=O)Nc1cc(OC)cc(OC)c1`, the “% Inhibition” value is listed as -9% and the Z score is listed as 1.15.

As to `O=c1n(Cc2cnoc2C2CC2)nc2cnccn12`, the “% Inhibition” value is listed as -5% and the Z score was determined as 0.83.

Take `O=S(=O)(Nc1ncccc1N1CCOCC1)c1ccccc1F`: the “% Inhibition” value is reported as -2% and the Z score was 0.38.

As for `Cc1cc(C)c(CN2CC[C@H](NS(=O)(=O)N(C)C)[C@@H](O)C2)cc1C`, the “% Inhibition” value is 0% and the Z score worked out at 0.03.

Take `CS(=O)(=O)CCNC(=O)NCCOc1ccc(F)cc1F`: the “% Inhibition” value is reported as -1% and the Z score amounted to 0.11.

As to `C[C@H](O)CN(C)S(=O)(=O)Cc1ccc(F)c(Cl)c1`, the “% Inhibition” value is on record as 0% and the Z score is 0.01.

With `CC(C)Oc1cnn(-c2ccccc2)c(=O)c1Nc1cccc(C(=O)NCc2ccco2)c1`, the “% Inhibition” value is on record as -16% and the Z score stood at 2.3.

On to `O=C(CCc1cccc(OC(F)F)c1)N1CCN2C[C@@H](F)C[C@H]2C1`, for which the “% Inhibition” value is given as 2% and the Z score is reported as -0.28.

For the molecule `CNc1nc(C)cc(C(=O)N(CCc2cccc(F)c2)C2CC2)n1`, the “% Inhibition” value is given as -9% and the Z score turned out to be 1.23.
